Screen size: about 310,000 compounds; about 2,200 (0.71%) showed an effect of 50% or more. The effect is printed as a negative number. This is one part of the list.
Target: human ether-à-go-go-related gene (hERG) potassium channel (human, UniProt Q12809)
Test: primary screen, population patch clamp on CHO cells stably expressing hERG

human ether-à-go-go-related gene (hERG) potassium channel, sequence (Q12809 whole entry, looked up): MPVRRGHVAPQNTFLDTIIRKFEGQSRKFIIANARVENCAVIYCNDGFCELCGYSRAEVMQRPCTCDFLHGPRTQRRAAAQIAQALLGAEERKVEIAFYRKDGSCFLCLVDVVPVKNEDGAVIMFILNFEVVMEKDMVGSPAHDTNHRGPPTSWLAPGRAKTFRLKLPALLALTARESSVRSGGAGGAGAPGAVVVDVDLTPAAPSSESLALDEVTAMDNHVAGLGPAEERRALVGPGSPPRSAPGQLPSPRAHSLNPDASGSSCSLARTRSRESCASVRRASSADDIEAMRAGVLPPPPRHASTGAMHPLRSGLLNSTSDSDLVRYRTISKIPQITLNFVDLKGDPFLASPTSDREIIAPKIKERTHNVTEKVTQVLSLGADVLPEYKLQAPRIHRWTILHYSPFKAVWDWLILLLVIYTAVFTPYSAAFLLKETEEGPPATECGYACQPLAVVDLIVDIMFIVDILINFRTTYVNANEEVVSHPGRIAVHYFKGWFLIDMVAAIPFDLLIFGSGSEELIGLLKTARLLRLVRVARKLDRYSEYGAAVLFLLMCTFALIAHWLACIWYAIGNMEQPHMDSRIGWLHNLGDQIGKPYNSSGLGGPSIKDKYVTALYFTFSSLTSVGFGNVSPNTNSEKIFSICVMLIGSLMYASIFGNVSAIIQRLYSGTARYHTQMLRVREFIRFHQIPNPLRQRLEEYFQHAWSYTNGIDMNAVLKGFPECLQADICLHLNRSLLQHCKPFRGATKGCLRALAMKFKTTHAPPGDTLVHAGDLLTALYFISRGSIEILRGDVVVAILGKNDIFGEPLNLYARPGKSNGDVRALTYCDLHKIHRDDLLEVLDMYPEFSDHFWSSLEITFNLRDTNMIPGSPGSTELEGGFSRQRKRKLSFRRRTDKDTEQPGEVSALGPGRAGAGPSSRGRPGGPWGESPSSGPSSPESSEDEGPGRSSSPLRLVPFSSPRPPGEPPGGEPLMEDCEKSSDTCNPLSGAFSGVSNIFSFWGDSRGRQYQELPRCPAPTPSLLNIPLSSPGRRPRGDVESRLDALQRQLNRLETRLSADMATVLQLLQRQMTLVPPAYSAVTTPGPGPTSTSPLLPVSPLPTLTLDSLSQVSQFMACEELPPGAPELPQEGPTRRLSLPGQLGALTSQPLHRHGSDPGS

Compound | hERG current change (%, negative = inhibition) at 1uM [%]
O=C(O)CC(c1ccc(Br)cc1)N1Cc2ccccc2C1=O (stereo not drawn) | 11.1
CCc1cc2c(=O)nc3n(c2s1)Cc1ccccc1/C3=C(/O)c1ccccc1Cl | 13.4
c1ccc(-n2cnc3cc(NCc4cccs4)ccc32)cc1 | 2.7
Cn1c(CO)cnc1-c1ccccc1 | 17.2
COc1ccc(C(=O)Nc2cc([N+](=O)[O-])ccc2N2CCCC2)cc1 | 6.41
Cc1ccccc1-n1c(=O)cc(N2CCN(C(=O)c3ccco3)CC2)[nH]c1=O | 7.19
COc1ccc(NS(=O)(=O)c2cccc(C(=O)NCC(c3ccc(F)cc3)N3CCOCC3)c2)cc1 (stereo not drawn) | -5.28
Cc1ccc(NC(=O)CCC(=O)OC(C(=O)c2ccc(C)c(C)c2)c2ccccc2)c(C)c1 (stereo not drawn) | 0.712
O=C(COc1coc(CN2CCc3ccccc3C2)cc1=O)Nc1ccc(Cl)cc1 | -0.649
CSc1nnc2c(n1)OC(c1cccn1C)N(C(C)=O)c1ccccc1-2 (stereo not drawn) | 6.15
Cc1oc(-c2cc(F)ccc2F)nc1CN1CCCN(C(=O)c2ccco2)CC1 | -20.9
CCCCCc1ccc(CC(=O)N2CCOCC2)cc1 | 19.7
CCN(CCNC(=O)C1=C(C)C(=O)OC12CCC(C)CC2)c1ccccc1 (stereo not drawn) | 4.44
COc1ccc(S(=O)(=O)NC2CC2)cc1-n1cnnn1 | 1.94
CCC(C)c1ccc(NC(=S)NCc2ccccn2)cc1 (stereo not drawn) | 3.74
CC1=NNC(=O)C1Cc1ccc(F)cc1 (stereo not drawn) | 8.57
CCOC(=O)c1c(NC(=O)COC(=O)Cn2cnc3ccccc32)sc(C)c1C | 8.73
CCN(CC)CCN(Cc1cc2cc(C)ccc2[nH]c1=O)C(=O)Nc1ccccc1OC | -22.2
Cc1ccc(S(=O)(=O)N(C)C)cc1NC(=O)CN1C(=O)NC(Cc2c[nH]c3ccccc23)C1=O (stereo not drawn) | 10.9
Cc1[nH]c2ccccc2c1C(=O)C(=O)NC1CC(=O)N(c2ccc(F)cc2)C1 (stereo not drawn) | -26.4
CN(C)c1ccc(C=C2C(=O)OC3(CCCC3)OC2=O)cc1 | 10.2
O=c1onc(-c2ccc(Cl)cc2Cl)n1-c1cccnc1 | 11.1

Compound | hERG current change (%, negative = inhibition) at 1uM [%]
Cc1ccc(Cn2c(C3CCCN3c3nc(-c4ccc(F)cc4)cs3)nc3cc(Cl)c(Cl)cc32)cc1 (stereo not drawn) | 10.1
CCCCNc1nc(N)nc(-c2cc(Cl)ccc2O)n1 | 8.93
CCOC(=O)c1nn(-c2ccccc2)c(=O)c2c(NC(C)=O)scc12 | 11.4
O=c1c2ccccc2ccc2ccccc12 | 7.17
O=C(Nc1ccc(CN2CCOCC2)cc1)c1ccc(-c2cccc(Cl)c2)o1 | -6.46
Cn1c(CC(=O)Nc2ccc(Cl)cc2)nnc1SCC(=O)N1CCOCC1 | 3.65
COc1ccc(Cl)cc1NC(=O)c1nnn(CC(=O)Nc2cc(C)cc(C)c2)c1N | 20.5
COc1ccccc1N1C(=O)N(C(C)=O)C2C1Nc1ccccc1N2C (stereo not drawn) | 3.89
Fc1cccc(Cn2cc(C(=S)N3CCCCC3)c3ccccc32)c1 | 2.48
CN(C)CCCNc1nc(-c2ccccc2)nc2ccccc12.Cl | 11.5
CN(C)CCNC(=O)C(C(=O)c1ccc(F)cc1)n1ccccc1=O.Cl (stereo not drawn) | 15
CC(C)(C)N(CC#CCC(O)(c1ccccc1)c1ccccc1)CCO | 8.71
CC(NC(=O)c1ccco1)C(=O)OCC(=O)N1CCCCCC1 (stereo not drawn) | 14.6
Cc1cc(C)cc(C(=O)Nc2ccc(NC(=O)Cc3ccccc3)cc2)c1 | 5.69
Cc1ccc(CN2CC(C(=O)N3CCN(S(=O)(=O)c4cc(C)ccc4C)CC3)CC2=O)cc1 (stereo not drawn) | 0.351
COc1ccccc1OCCNS(=O)(=O)c1ccc2oc3ccccc3c2c1 | 0.489
COc1ccccc1C(=O)C1CCCN(C(=O)c2cn3cc(Cl)ccc3n2)C1 (stereo not drawn) | 8.23
CCCc1cnc(NCCNCC(O)COc2ccc(Cl)c(Cl)c2)nc1 (stereo not drawn) | -30.7
CCc1c(C)[nH]c2ccccc2c1=O | -7.65
COc1ccc(NC(=O)CC(C)c2ccccc2)c([N+](=O)[O-])c1 (stereo not drawn) | 14.5
Br.CCCC1CC(C)(C(=O)CSc2n[nH]c(-c3ccccc3)n2)OC1=O (stereo not drawn) | -6.1
COc1cc(OC)c(Cl)cc1N | 8.91

Compound | hERG current change (%, negative = inhibition) at 1uM [%]
CCc1cc2c(=O)n(Cc3ccco3)c(SCC(=O)NCC3CCCO3)nc2s1 (stereo not drawn) | -60.5
CCC(=O)NC(C)C(c1cccs1)N1CCN(c2ccccc2)CC1 (stereo not drawn) | 14.3
OCC[C@H]1C[C@H](O)[C@@H](O)[C@@]2(OCc3ccccc32)O1 | 9.39
CCOc1ccccc1OCCCOc1ccc([N+](=O)[O-])cc1Cl | 12.4
COc1ccc(Cn2nnnc2C(c2cc(OC)ccc2OC)N2CCC(C(N)=O)CC2)cc1 (stereo not drawn) | 7.16
Cn1cnnc1SC1c2cccc3cccc(c23)C1NS(=O)(=O)c1ccccc1 (stereo not drawn) | -0.295
CC(O)c1cccc(NC(=O)Nc2cccc(NC(=O)Nc3cccc(C(C)O)c3)c2)c1 (stereo not drawn) | 13.6
CC1CCc2sc(C(=O)NCCCn3ccnc3)cc2C1 (stereo not drawn) | 11.6
CCCOc1ncnc2c1[nH]c1ccccc12 | 13.9
O=C(O)CSCC(=O)N1CCN(c2ccnc3cc(Cl)ccc23)CC1 | 6.12
C=CCOc1ccc(/C=C2\N=C(C)OC2=O)cc1OC | 14.9
COc1ccc(C(=O)CCC(=O)N2CCN(c3cccc(Cl)c3)CC2)cc1 | -9.92
COc1ccc(OC)c(N(CC(=O)NCCSCc2ccco2)S(=O)(=O)c2ccc(OC)c(OC)c2)c1 | 3.56
O=C(Nc1ccccc1)c1nnn(Cc2ccccc2)c1NC(=O)C(F)(F)F | 1.24
O=C(Nc1cccc(Cl)c1)/C(=C\c1cccnc1)NC(=O)c1ccco1 | -42.3
COc1cc(S(=O)(=O)Nc2ccccc2C(=O)N2CCCCC2)ccc1NC(C)=O | 13
CC(=O)N1CCN(S(=O)(=O)c2ccc3c(c2)CC(=O)N3)CC1 | 1.42
O=C(CC(c1ccccc1)c1ccccc1)Nc1ccc(C(=O)O)cc1 | 11.1
CC(NC(=S)Nc1ccc(S(=O)(=O)N2CCOCC2)cc1)C1CC2CCC1C2 (stereo not drawn) | 10.9
Cc1cc(C)cc(C(=O)N(NC(=O)Nc2ccc(Cl)cc2)C(C)(C)C)c1 | 8.47
Cc1cc(C)n(CC(C)NC(=O)CCc2nnc(CCc3ccccc3)o2)n1 (stereo not drawn) | 11.9
N#Cc1ccccc1OCC(O)CS(=O)(=O)c1ccccc1 (stereo not drawn) | 7.85

Compound | hERG current change (%, negative = inhibition) at 1uM [%]
COCCN(C(=O)CCc1nnc(CCc2c[nH]c3ccccc23)o1)C(C)C | 8.97
Cc1oc2cc3oc(=O)c(CCC(=O)N(C)CC(=O)O)c(C)c3cc2c1C | 10.2
COc1ccc(C(=O)CSc2ccc(-c3ccc(C)cc3)nn2)cc1 | 18.1
COc1ccc(NC(=O)c2nc(C)n(-c3ccc([N+](=O)[O-])cc3)n2)cc1 | 5.3
Cc1ccc(OCCn2ccnc2)c(C)c1 | 8.18
Cc1ccc(Cn2c(=O)n(CCC(=O)NCc3ccc4c(c3)OCO4)c(=O)c3ccccc32)cc1 | -0.532
Cc1nc(C(=O)NCc2ccccc2)sc1C1(C)CC(c2cccc([N+](=O)[O-])c2)=NO1 (stereo not drawn) | 9.93
COCCNC(=O)C(c1ccc(C)cc1)N(C(=O)CCC(=O)Nc1ccccn1)c1ccccc1C (stereo not drawn) | 14.8
CCOC(=O)c1cc(-c2ccc(OC)cc2)nn1-c1ccc(C(=O)O)cc1 | 10.2
CCOC(=O)c1c(NC(=O)CC2SC(=NC)N(C)C2=O)sc(C)c1C (stereo not drawn) | 3.73
CCOc1ccccc1C(=O)N/N=C/c1cccc2cccnc12 | 9.42
CN(C)S(=O)(=O)c1cccc(NC(=O)c2cccc(NS(=O)(=O)c3ccccc3)c2)c1 | 12.2
CN(CC(=O)Nc1ccccc1C(F)(F)F)C(=O)c1cccc(-n2cccc2)c1 | 6
CCCCN(Cc1ccccc1)S(=O)(=O)c1ccc2[nH]c(=O)oc2c1 | 6.79
CCCCn1c(O)c(C(C)=Nc2ccc(OCC)cc2)c(=O)[nH]c1=O | 6.03
CC1=NN(C(=O)c2nn(C)cc2Br)C(O)(C(F)(F)F)C1 (stereo not drawn) | 9.17
CC(=O)Nc1ccc(NC(=O)Cn2cc3c(n2)CCCC3)cc1 | 7.63
Cn1c(N)c(C#N)c2c(c1=S)COC(C)(C)C2 | 9.76
CC1(C)CC(=O)C2=C(C1)N(c1ccccc1)C(N)=C(C#N)C2c1cccnc1 (stereo not drawn) | 11.2
O=C(NCC1CCCO1)c1ccc([N+](=O)[O-])s1 (stereo not drawn) | 9.14
c1ccc(-c2nnc(SCC3CCCCO3)nc2-c2ccccc2)cc1 (stereo not drawn) | 17.3
